# B1: Anti-CDH6 antibody-drug conjugate (1): humanized anti-CDH6 antibody (heavy chain SEQ ID NO: 29, light chain SEQ ID NO: 38) conjugated to the exatecan-derivative drug-linker via thioether bond; DAR 7.9 (conjugate)
# heavy: EVQLVQSGAEVKKPGASVKVSCKASGYTFTRNFMHWVRQAPGQGLEWMGWIYPGDGETEYAQKFQGRVTITADTSTSTAYMELSSLRSEDTAVYYCARGVYGGFAGGYFDFWGQGTLVTVSSASTKGPSVFPLAPSSKSTSGGTAALGCLVKDYFPEPVTVSWNSGALTSGVHTFPAVLQSSGLYSLSSVVTVPSSSLGTQTYICNVNHKPSNTKVDKRV[human IgG1 Fc left out]
# light: DIQMTQSPSSLSASVGDRVTITCKASQNIYKNLAWYQQKPGKAPKLLIYDANTLQTGVPSRFSGSGSGSDFTLTISSLQPEDFATYFCQQYYSGWAFGQGTKVEIKRTVAAPSVFIFPPSDEQLKSGTASVVCLLNNFYPREAKVQWKVDNALQSGNSQESVTEQDSKDSTYSLSSTLTLSKADYEKHKVYACEVTHQGLSSPVTKSFNRGEC
# modifications: exatecan-derivative drug-linker, DAR 7.9; Matured heavy chain amino acid sequence of hH01 heavy chain, without a signal sequence; Matured light chain amino acid sequence of hL02 light chain, without a signal sequence
# Test system: Human kidney cancer cell line 786-O cells
# Format: in vivo
# Conditions: 786-O subcutaneous xenograft, nude mice, ADC (1) 1 mg/kg i.v. on Day 0, belzutifan 0.3 mg/kg orally once daily, five times a week for 3 weeks
# Description: Mouse: Six-week-old female BALB/c nude mice (The Jackson Laboratory Japan, Inc.) were subjected to an experiment.
# Measurement and calculation expression: The long diameter and short diameter of each tumor were measured twice a week using electronic digital calipers (CD-15CX, Mitutoyo Corp.), and the volume of the tumor was then calculated. The following expression was used in the calculation.
# The anti-CDH6 antibody-drug conjugate (1) was diluted with ABS buffer (10 mM acetate buffer (pH 5.5), 5% sorbitol), and the dilution was intravenously administered at a dose of 10 mL/kg to the tail of each mouse. Belzutifan was suspended in 10% dimethyl sulfoxide, 40% polyethylene glycol 300, 5% Tween-80, and 45% physiological saline, and the suspension was administered orally at a dose of 10 mL/kg.
# Human kidney cancer cell line 786-O cells purchased from ATCC (American Type Culture Collection) were suspended in Matrigel Matrix, and the cell suspension was subcutaneously inoculated at a dose of 4×10^6 cells to the right flank region of each female nude mouse. […]
# Tumor growth inhibition (TGI) is calculated according to the following expression.
# Change from baseline (%) (percentage change of average tumor volume on Day 21 from an average tumor volume on Day 0 as a baseline) was calculated according to the following expression, and is shown in FIG. 15.
molecule,measurement,setting,value
B1,Tumor growth inhibition (TGI),Day 21,43%
same,Change from baseline (%) (percentage change of average tumor volume on Day 21 from average tumor volume on Day 0),Day 21 vs Day 0,25%

# — patent publication US20260248938A1, “COMBINATION OF ANTI-CDH6 ANTIBODY-DRUG CONJUGATE AND HIF-2alpha INHIBITOR” (DAIICHI SANKYO COMPANY, LIMITED, priority 2023, published 2026)
